Source: publication PMC12647151 (Communications Biology, 2025)

Molecular target: GST-ACTN1 (full-length human ACTN1 in pGEX-4T-1) (human, UniProt P12814 1-892)
Experiment: pull-down

Chain of UniProt P12814 (P12814 whole entry): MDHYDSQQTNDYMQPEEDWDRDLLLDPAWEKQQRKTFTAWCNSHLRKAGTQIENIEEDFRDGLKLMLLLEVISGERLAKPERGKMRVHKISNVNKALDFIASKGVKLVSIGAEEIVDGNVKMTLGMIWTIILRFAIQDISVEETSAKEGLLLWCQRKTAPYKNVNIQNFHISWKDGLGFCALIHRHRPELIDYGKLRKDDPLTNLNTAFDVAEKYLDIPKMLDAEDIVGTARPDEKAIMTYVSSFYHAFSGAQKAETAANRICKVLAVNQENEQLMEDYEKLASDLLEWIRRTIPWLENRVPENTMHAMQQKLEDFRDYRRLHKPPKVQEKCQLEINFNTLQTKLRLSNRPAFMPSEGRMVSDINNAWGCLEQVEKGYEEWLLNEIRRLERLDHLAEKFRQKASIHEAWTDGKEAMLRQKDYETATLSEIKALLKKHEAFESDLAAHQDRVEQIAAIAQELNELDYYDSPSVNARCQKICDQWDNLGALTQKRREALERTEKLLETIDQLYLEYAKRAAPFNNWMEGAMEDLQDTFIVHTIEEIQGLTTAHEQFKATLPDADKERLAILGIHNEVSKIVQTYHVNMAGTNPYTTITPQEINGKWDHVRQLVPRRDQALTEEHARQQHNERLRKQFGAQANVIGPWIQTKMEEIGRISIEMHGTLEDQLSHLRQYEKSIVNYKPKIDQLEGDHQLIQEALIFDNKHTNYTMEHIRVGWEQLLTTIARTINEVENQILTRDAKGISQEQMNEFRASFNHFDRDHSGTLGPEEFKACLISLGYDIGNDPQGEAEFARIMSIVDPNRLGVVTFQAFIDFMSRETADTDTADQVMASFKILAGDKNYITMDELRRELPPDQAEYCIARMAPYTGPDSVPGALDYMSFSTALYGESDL

binding result: binds
B1: Human USP14 catalytic inactive mutant C114A bearing an N-terminal Flag tag, purified from E. coli (enzyme)
chain: not shown
